# The list shows a part of the results.
# B1: Strep tagII-anxA1 (Homo sapiens), P04083 (protein)
# chain: MAMVSEFLKQAWFIENEEQEYVQTVKSSKGGPGSAVSPYPTFNPSSDVAALHKAIMVKGVDEATIIDILTKRNNAQRQQIKAAYLQETGKPLDETLKKALTGHLEEVVLALLKTPAQFDADELRAAMKGLGTDEDTLIEILASRTNKEIRDINRVYREELKRDLAKDITSDTSGDFRNALLSLAKGDRSEDFGVNEDLADSDARALYEAGERRKGTDVNVFNTILTTRSYPQLRRVFQKYTKYSKHDMNKVLDLELKGDIEKCLTAIVKCATSKPAFFAEKLHQAMKGVGTRHKALIRIMVSRSEIDMNDIKAFYQKMYGISLCQAILDETKGDYEKILVALCGGN
# Legend:
# Test in all cases: glycan array binding signal (z-score within array); higher = stronger binding
# Details in all cases: glycan notation: IUPAC condensed, linker removed
# [1] = molecular target: Gal(b1-3)GlcNAc(b1-3)Gal(b1-3)GlcNAc
# How it was run: (§1)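 Glycan array binding is given as a within-array Z-score, which can be read as non-binding when negative. The arrays, 3228 of them, came from the Consortium for Functional Glycomics database and were retained only where the protein sequence was available. Z-scores were averaged across arrays of the same protein sequence at different concentrations or buffers and across linkers.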
# [2] = molecular target: Gal(b1-3)GlcNAc(b1-3)Gal(b1-4)Glc
# How it was run: as §1
# [3] = molecular target: Gal(b1-3)GlcNAc(b1-3)Gal(b1-4)GlcNAc
# How it was run: as §1
# [4] = molecular target: Gal(b1-3)GlcNAc(b1-3)Gal(b1-4)GlcNAc(b1-6)[Gal(b1-3)GlcNAc(b1-3)]Gal(b1-4)Glc
# How it was run: as §1
# [5] = molecular target: Gal(b1-3)GlcNAc(b1-3)Gal(b1-4)[Fuc(a1-3)]GlcNAc(b1-6)[Gal(b1-3)GlcNAc(b1-3)]Gal(b1-4)Glc
# How it was run: as §1
# [6] = molecular target: Gal(b1-3)GlcNAc(b1-3)GalNAc
# How it was run: as §1
# [7] = molecular target: Gal(b1-3)GlcNAc(b1-6)Gal(b1-4)GlcNAc
# How it was run: as §1
# [8] = molecular target: Gal(b1-3)GlcNAc(b1-6)GalNAc
# How it was run: as §1
# Gal(b1-3)GlcNAc6S = molecular target: Gal(b1-3)GlcNAc6S
# How it was run: as §1
# [9] = molecular target: Gal(b1-3)[Fuc(a1-4)]GlcNAc
# How it was run: as §1
# [10] = molecular target: Gal(b1-3)[Fuc(a1-4)]GlcNAc(b1-2)Man(a1-3)[Gal(b1-3)[Fuc(a1-4)]GlcNAc(b1-2)Man(a1-6)]Man(b1-4)GlcNAc(b1-4)[Fuc(a1-6)]GlcNAc
# How it was run: as §1
# [11] = molecular target: Gal(b1-3)[Fuc(a1-4)]GlcNAc(b1-3)Gal(b1-3)[Fuc(a1-4)]GlcNAc
# How it was run: as §1
# [12] = molecular target: Gal(b1-3)[Fuc(a1-4)]GlcNAc(b1-3)Gal(b1-4)GlcNAc
# How it was run: as §1
# [13] = molecular target: Gal(b1-3)[Fuc(a1-4)]GlcNAc(b1-3)Gal(b1-4)[Fuc(a1-3)]GlcNAc
# How it was run: as §1
# [14] = molecular target: Gal(b1-3)[Fuc(a1-4)]GlcNAc(b1-6)GalNAc
# How it was run: as §1
# [15] = molecular target: Gal(b1-3)[GlcNAc(b1-6)]GalNAc
# How it was run: as §1
# [16] = molecular target: Gal(b1-3)[Neu5Ac(a2-6)]GalNAc
# How it was run: as §1
# [17] = molecular target: Gal(b1-3)[Neu5Ac(a2-6)]GlcNAc(b1-6)Gal(b1-4)Glc
# How it was run: as §1
# [18] = molecular target: Gal(b1-3)[Neu5Ac(b2-6)]GalNAc
# How it was run: as §1
# Gal(b1-4)Gal = molecular target: Gal(b1-4)Gal
# How it was run: as §1
# [19] = molecular target: Gal(b1-4)GalNAc(a1-3)[Fuc(a1-2)]Gal(b1-4)GlcNAc
# How it was run: as §1
# [20] = molecular target: Gal(b1-4)GalNAc(b1-3)[Fuc(a1-2)]Gal(b1-4)GlcNAc
# How it was run: as §1
# Gal(b1-4)Glc = molecular target: Gal(b1-4)Glc
# How it was run: as §1
# Gal(b1-4)Glc6S = molecular target: Gal(b1-4)Glc6S
# How it was run: as §1
# Gal(b1-4)GlcNAc = molecular target: Gal(b1-4)GlcNAc
# How it was run: as §1
# [21] = molecular target: Gal(b1-4)GlcNAc(a1-6)Gal(b1-4)GlcNAc
# How it was run: as §1
# Gal(b1-4)GlcNAc(b1-2)Man = molecular target: Gal(b1-4)GlcNAc(b1-2)Man
# How it was run: as §1
# [22] = molecular target: Gal(b1-4)GlcNAc(b1-2)Man(a1-3)Man(b1-4)GlcNAc(b1-4)GlcNAc
# How it was run: as §1
# [23] = molecular target: Gal(b1-4)GlcNAc(b1-2)Man(a1-3)[Gal(b1-4)GlcNAc(b1-2)Man(a1-6)]Man(b1-4)GlcNAc(b1-4)GlcNAc
# How it was run: as §1
# [24] = molecular target: Gal(b1-4)GlcNAc(b1-2)Man(a1-3)[Gal(b1-4)GlcNAc(b1-2)Man(a1-6)]Man(b1-4)GlcNAc(b1-4)[Fuc(a1-6)]GlcNAc
# How it was run: as §1
# [25] = molecular target: Gal(b1-4)GlcNAc(b1-2)Man(a1-3)[Gal(b1-4)GlcNAc(b1-2)][GlcNAc(b1-4)]Man(b1-4)GlcNAc(b1-4)GlcNAc
# How it was run: as §1
# [26] = molecular target: Gal(b1-4)GlcNAc(b1-2)Man(a1-3)[GlcNAc(b1-2)Man(a1-6)]Man(b1-4)GlcNAc(b1-4)GlcNAc
# How it was run: as §1
# [27] = molecular target: Gal(b1-4)GlcNAc(b1-2)Man(a1-3)[Man(a1-6)]Man(b1-4)GlcNAc(b1-4)GlcNAc
# How it was run: as §1
# [28] = molecular target: Gal(b1-4)GlcNAc(b1-2)Man(a1-6)Man(b1-4)GlcNAc(b1-4)GlcNAc
# How it was run: as §1
# [29] = molecular target: Gal(b1-4)GlcNAc(b1-2)Man(a1-6)[GlcNAc(b1-2)Man(a1-3)]Man(b1-4)GlcNAc(b1-4)GlcNAc
# How it was run: as §1
# [30] = molecular target: Gal(b1-4)GlcNAc(b1-2)Man(a1-6)[Man(a1-3)]Man(b1-4)GlcNAc(b1-4)GlcNAc
# How it was run: as §1
# [31] = molecular target: Gal(b1-4)GlcNAc(b1-2)[Gal(b1-4)GlcNAc(b1-4)]Man(a1-3)[Gal(b1-4)GlcNAc(b1-2)Man(a1-6)]Man(b1-4)GlcNAc(b1-4)GlcNAc
# How it was run: as §1
# [32] = molecular target: Gal(b1-4)GlcNAc(b1-2)[Gal(b1-4)GlcNAc(b1-4)]Man(a1-3)[Gal(b1-4)GlcNAc(b1-2)[Gal(b1-4)GlcNAc(b1-6)]Man(a1-6)]Man(b1-4)GlcNAc(b1-4)GlcNAc
# How it was run: as §1
binder,measurement,setting,value
B1,glycan array binding signal (z-score),[1],-0.731
same,glycan array binding signal (z-score),[2],0.663
same,glycan array binding signal (z-score),[3],-0.44
same,glycan array binding signal (z-score),[4],-0.601
same,glycan array binding signal (z-score),[5],-0.076
same,glycan array binding signal (z-score),[6],-0.63
same,glycan array binding signal (z-score),[7],-0.776
same,glycan array binding signal (z-score),[8],-0.114
same,glycan array binding signal (z-score),Gal(b1-3)GlcNAc6S,0.931
same,glycan array binding signal (z-score),[9],0.765
same,glycan array binding signal (z-score),[10],2.5
same,glycan array binding signal (z-score),[11],-0.366
same,glycan array binding signal (z-score),[12],-0.748
same,glycan array binding signal (z-score),[13],-0.588
same,glycan array binding signal (z-score),[14],0.179
same,glycan array binding signal (z-score),[15],-0.339
same,glycan array binding signal (z-score),[16],-0.631
same,glycan array binding signal (z-score),[17],-0.49
same,glycan array binding signal (z-score),[18],-0.714
same,glycan array binding signal (z-score),Gal(b1-4)Gal,-0.735
same,glycan array binding signal (z-score),[19],-0.754
same,glycan array binding signal (z-score),[20],0.232
same,glycan array binding signal (z-score),Gal(b1-4)Glc,0.139
same,glycan array binding signal (z-score),Gal(b1-4)Glc6S,-0.455
same,glycan array binding signal (z-score),Gal(b1-4)GlcNAc,-0.156
same,glycan array binding signal (z-score),[21],0.231
same,glycan array binding signal (z-score),Gal(b1-4)GlcNAc(b1-2)Man,0.18
same,glycan array binding signal (z-score),[22],-0.266
same,glycan array binding signal (z-score),[23],-0.682
same,glycan array binding signal (z-score),[24],-0.215
same,glycan array binding signal (z-score),[25],1.45
same,glycan array binding signal (z-score),[26],-0.567
same,glycan array binding signal (z-score),[27],1.08
same,glycan array binding signal (z-score),[28],-0.229
same,glycan array binding signal (z-score),[29],0.018
same,glycan array binding signal (z-score),[30],-0.601
same,glycan array binding signal (z-score),[31],-0.585
same,glycan array binding signal (z-score),[32],-0.679
